Experimental data: PMC9911399, “Two distinct binding modes provide the RNA-binding protein RbFox with extraordinary sequence specificity”
Residue numbers refer to the chain shown, from its start. Some of the results follow.

T1: RBFOX1 RRM RbFoxmut (Fox-RRM*) (Homo sapiens, UniProt Q9NWB1 109-208, R118D;E147R;N151S;E152T)
T1 sequence: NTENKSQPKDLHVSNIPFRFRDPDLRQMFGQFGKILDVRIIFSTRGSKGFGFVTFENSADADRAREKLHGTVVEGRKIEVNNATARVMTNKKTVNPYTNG

B1: CCAUAGC (DNA:RNA)
RNA: GGGAGACCGGAAUUCAGAUUGUCCCCAUAGCUUAAAUCCCGUCGUAGCCACCA
DNA 1: CAATCTGAATTCCGGTCTCCC
DNA 2: TGGTGGCTACGACGGGATT
B2: UCGGUGC (DNA:RNA)
RNA: B1 RNA with C25U, A27G, U28G, A29U
DNA 1: CAATCTGAATTCCGGTCTCCC
DNA 2: TGGTGGCTACGACGGGATT
B3: GUCUAGC (DNA:RNA)
RNA: B1 RNA with C25G, C26U, A27C
DNA 1: CAATCTGAATTCCGGTCTCCC
DNA 2: TGGTGGCTACGACGGGATT
B4: UCAUCGC (DNA:RNA)
RNA: B1 RNA with C25U, A29C
DNA 1: CAATCTGAATTCCGGTCTCCC
DNA 2: TGGTGGCTACGACGGGATT
B5: GCUCGGU (DNA:RNA)
RNA: B1 RNA with C25G, A27U, U28C, A29G, C31U
DNA 1: CAATCTGAATTCCGGTCTCCC
DNA 2: TGGTGGCTACGACGGGATT
B6: AGUUUUC (DNA:RNA)
RNA: B1 RNA with C25A, C26G, A27U, A29U, G30U
DNA 1: CAATCTGAATTCCGGTCTCCC
DNA 2: TGGTGGCTACGACGGGATT
B7: UAUCAGC (DNA:RNA)
RNA: B1 RNA with C25U, C26A, A27U, U28C
DNA 1: CAATCTGAATTCCGGTCTCCC
DNA 2: TGGTGGCTACGACGGGATT
B8: UUUUGGA (DNA:RNA)
RNA: B1 RNA with C25U, C26U, A27U, A29G, C31A
DNA 1: CAATCTGAATTCCGGTCTCCC
DNA 2: TGGTGGCTACGACGGGATT
B9: UUGAUUC (DNA:RNA)
RNA: B1 RNA with C25U, C26U, A27G, U28A, A29U, G30U
DNA 1: CAATCTGAATTCCGGTCTCCC
DNA 2: TGGTGGCTACGACGGGATT
B10: CCGUCGA (DNA:RNA)
RNA: B1 RNA with A27G, A29C, C31A
DNA 1: CAATCTGAATTCCGGTCTCCC
DNA 2: TGGTGGCTACGACGGGATT
B11: GAGUACA (DNA:RNA)
RNA: B1 RNA with C25G, C26A, A27G, G30C, C31A
DNA 1: CAATCTGAATTCCGGTCTCCC
DNA 2: TGGTGGCTACGACGGGATT
B12: CGAAGCU (DNA:RNA)
RNA: B1 RNA with C26G, U28A, A29G, G30C, C31U
DNA 1: CAATCTGAATTCCGGTCTCCC
DNA 2: TGGTGGCTACGACGGGATT
B13: GGCACUA (DNA:RNA)
RNA: GGGAGACCGGAAUUCAGAUUGUCCGGCACUAUUAAAUCCCGUCGUAGCCACCA
DNA 1: CAATCTGAATTCCGGTCTCCC
DNA 2: TGGTGGCTACGACGGGATT
B14: CCGCCUA (DNA:RNA)
RNA: B13 RNA with G25C, G26C, C27G, A28C
DNA 1: CAATCTGAATTCCGGTCTCCC
DNA 2: TGGTGGCTACGACGGGATT
B15: CCCGCUA (DNA:RNA)
RNA: B13 RNA with G25C, G26C, A28G
DNA 1: CAATCTGAATTCCGGTCTCCC
DNA 2: TGGTGGCTACGACGGGATT
B16: CCAUCUA (DNA:RNA)
RNA: B1 RNA with A29C, G30U, C31A
DNA 1: CAATCTGAATTCCGGTCTCCC
DNA 2: TGGTGGCTACGACGGGATT
B17: GCAUGUA (DNA:RNA)
RNA: B1 RNA with C25G, A29G, G30U, C31A
DNA 1: CAATCTGAATTCCGGTCTCCC
DNA 2: TGGTGGCTACGACGGGATT
B18: AGCGCCA (DNA:RNA)
RNA: B13 RNA with G25A, A28G, U30C
DNA 1: CAATCTGAATTCCGGTCTCCC
DNA 2: TGGTGGCTACGACGGGATT
B19: UGGAUCC (DNA:RNA)
RNA: B13 RNA with G25U, C27G, C29U, U30C, A31C
DNA 1: CAATCTGAATTCCGGTCTCCC
DNA 2: TGGTGGCTACGACGGGATT
B20: CUUAUCU (DNA:RNA)
RNA: B1 RNA with C26U, A27U, U28A, A29U, G30C, C31U
DNA 1: CAATCTGAATTCCGGTCTCCC
DNA 2: TGGTGGCTACGACGGGATT
B21: UCGAGAA (DNA:RNA)
RNA: B13 RNA with G25U, G26C, C27G, C29G, U30A
DNA 1: CAATCTGAATTCCGGTCTCCC
DNA 2: TGGTGGCTACGACGGGATT
B22: UCCUACC (DNA:RNA)
RNA: B1 RNA with C25U, A27C, G30C
DNA 1: CAATCTGAATTCCGGTCTCCC
DNA 2: TGGTGGCTACGACGGGATT
B23: UACGGAU (DNA:RNA)
RNA: B13 RNA with G25U, G26A, A28G, C29G, U30A, A31U
DNA 1: CAATCTGAATTCCGGTCTCCC
DNA 2: TGGTGGCTACGACGGGATT
B24: AUGAUGU (DNA:RNA)
RNA: B1 RNA with C25A, C26U, A27G, U28A, A29U, C31U
DNA 1: CAATCTGAATTCCGGTCTCCC
DNA 2: TGGTGGCTACGACGGGATT
B25: UUCCAGC (DNA:RNA)
RNA: B1 RNA with C25U, C26U, A27C, U28C
DNA 1: CAATCTGAATTCCGGTCTCCC
DNA 2: TGGTGGCTACGACGGGATT
B26: UCUCACA (DNA:RNA)
RNA: B1 RNA with C25U, A27U, U28C, G30C, C31A
DNA 1: CAATCTGAATTCCGGTCTCCC
DNA 2: TGGTGGCTACGACGGGATT
B27: CAGCGAC (DNA:RNA)
RNA: B1 RNA with C26A, A27G, U28C, A29G, G30A
DNA 1: CAATCTGAATTCCGGTCTCCC
DNA 2: TGGTGGCTACGACGGGATT
B28: ACGUGCU (DNA:RNA)
RNA: B1 RNA with C25A, A27G, A29G, G30C, C31U
DNA 1: CAATCTGAATTCCGGTCTCCC
DNA 2: TGGTGGCTACGACGGGATT
B29: ACUAGAU (DNA:RNA)
RNA: B1 RNA with C25A, A27U, U28A, A29G, G30A, C31U
DNA 1: CAATCTGAATTCCGGTCTCCC
DNA 2: TGGTGGCTACGACGGGATT
B30: UCACAGA (DNA:RNA)
RNA: B1 RNA with C25U, U28C, C31A
DNA 1: CAATCTGAATTCCGGTCTCCC
DNA 2: TGGTGGCTACGACGGGATT
B31: GAGGCCA (DNA:RNA)
RNA: B13 RNA with G26A, C27G, A28G, U30C
DNA 1: CAATCTGAATTCCGGTCTCCC
DNA 2: TGGTGGCTACGACGGGATT

These binders were tested against T1, RBFOX1 RRM RbFoxmut (Fox-RRM*) (assay: EMSA; HiTS-Eq, 1 nM pool, 10 min; buffer printed only for the single-RNA assays: 10 mM Tris pH 7.5, 150 mM NaCl, 3.4 mM EDTA, 0.001% NP-40, 30 C). Conditions: tags: His6 N-terminal (pET28a); label: 5' 32P.
Outline: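 Purified RbFox RRM, wild type or mutant, was incubated for 10 min in 50 µL with 1 nM of a 5′-radiolabelled RNA pool carrying 7 randomized nucleotides, whose flanks were annealed to DNA oligonucleotides, over a series of increasing protein concentrations. Unbound RNA was resolved on 8% native PAGE, cut out, reverse-transcribed, barcoded by PCR and sequenced on an Illumina HiSeq 2500. Relative association constants were derived from changes in read counts for each RNA species versus the control reaction and normalised to the cognate motif.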

| Binder | binding signal |
| --- | --- |
| B1 | 0.0787 KA relative to UGCAUGU |
| B2 | 0.101 KA relative to UGCAUGU |
| B3 | 0.0934 KA relative to UGCAUGU |
| B4 | 0.0909 KA relative to UGCAUGU |
| B5 | 0.137 KA relative to UGCAUGU |
| B6 | 0.0747 KA relative to UGCAUGU |
| B7 | 0.0726 KA relative to UGCAUGU |
| B8 | 0.0501 KA relative to UGCAUGU |
| B9 | 0.196 KA relative to UGCAUGU |
| B10 | 0.0785 KA relative to UGCAUGU |
| B11 | 0.0764 KA relative to UGCAUGU |
| B12 | 0.0941 KA relative to UGCAUGU |
| B13 | 0.0618 KA relative to UGCAUGU |
| B14 | 0.0844 KA relative to UGCAUGU |
| B15 | 0.11 KA relative to UGCAUGU |
| B16 | 0.092 KA relative to UGCAUGU |

| Binder | binding signal |
| --- | --- |
| B17 | 1.04 KA relative to UGCAUGU |
| B18 | 0.107 KA relative to UGCAUGU |
| B19 | 0.211 KA relative to UGCAUGU |
| B20 | 0.074 KA relative to UGCAUGU |
| B21 | 0.116 KA relative to UGCAUGU |
| B22 | 0.122 KA relative to UGCAUGU |
| B23 | 0.0871 KA relative to UGCAUGU |
| B24 | 0.156 KA relative to UGCAUGU |
| B25 | 0.0966 KA relative to UGCAUGU |
| B26 | 0.122 KA relative to UGCAUGU |
| B27 | 0.0583 KA relative to UGCAUGU |
| B28 | 0.122 KA relative to UGCAUGU |
| B29 | 0.0791 KA relative to UGCAUGU |
| B30 | 0.0706 KA relative to UGCAUGU |
| B31 | 0.091 KA relative to UGCAUGU |
